The values below come from article PMC7526519.

The chains behind the UniProt entries cited, without tags or fusion partners. Where a name states a change or a piece, a line headed by the entry shows the natural chain unless it says otherwise. A line that says so, or that is headed by a name, gives the form on record, which may keep a tag or linker. Residues count along the entry.
UniProt Q56NL1: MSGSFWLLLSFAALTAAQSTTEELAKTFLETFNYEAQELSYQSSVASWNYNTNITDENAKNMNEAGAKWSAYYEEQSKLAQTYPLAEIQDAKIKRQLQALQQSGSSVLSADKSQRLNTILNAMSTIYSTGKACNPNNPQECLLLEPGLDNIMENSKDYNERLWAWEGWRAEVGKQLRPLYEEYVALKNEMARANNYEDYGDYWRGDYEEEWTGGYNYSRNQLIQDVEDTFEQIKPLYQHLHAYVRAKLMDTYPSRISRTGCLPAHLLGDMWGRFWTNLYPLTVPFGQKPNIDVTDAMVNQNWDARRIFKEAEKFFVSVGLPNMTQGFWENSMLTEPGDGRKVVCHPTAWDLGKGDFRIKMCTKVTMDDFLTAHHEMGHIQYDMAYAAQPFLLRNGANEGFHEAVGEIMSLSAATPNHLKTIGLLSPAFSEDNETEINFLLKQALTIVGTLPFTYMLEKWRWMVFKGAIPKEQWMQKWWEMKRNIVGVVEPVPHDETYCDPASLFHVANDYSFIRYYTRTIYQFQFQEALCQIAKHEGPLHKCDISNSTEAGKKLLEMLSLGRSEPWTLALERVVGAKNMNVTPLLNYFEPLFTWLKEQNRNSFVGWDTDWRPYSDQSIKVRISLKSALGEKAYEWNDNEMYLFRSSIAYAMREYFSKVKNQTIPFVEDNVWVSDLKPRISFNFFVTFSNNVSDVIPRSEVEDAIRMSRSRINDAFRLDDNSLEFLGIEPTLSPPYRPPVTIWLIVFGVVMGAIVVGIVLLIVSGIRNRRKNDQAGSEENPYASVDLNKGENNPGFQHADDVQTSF
civet ACE2, eGFP-tagged: residues 18-805 of Q56NL1
civet ACE2 ectodomain fused with mouse Fc: residues 18-740 of Q56NL1
UniProt Q58DD0, residues 18-804: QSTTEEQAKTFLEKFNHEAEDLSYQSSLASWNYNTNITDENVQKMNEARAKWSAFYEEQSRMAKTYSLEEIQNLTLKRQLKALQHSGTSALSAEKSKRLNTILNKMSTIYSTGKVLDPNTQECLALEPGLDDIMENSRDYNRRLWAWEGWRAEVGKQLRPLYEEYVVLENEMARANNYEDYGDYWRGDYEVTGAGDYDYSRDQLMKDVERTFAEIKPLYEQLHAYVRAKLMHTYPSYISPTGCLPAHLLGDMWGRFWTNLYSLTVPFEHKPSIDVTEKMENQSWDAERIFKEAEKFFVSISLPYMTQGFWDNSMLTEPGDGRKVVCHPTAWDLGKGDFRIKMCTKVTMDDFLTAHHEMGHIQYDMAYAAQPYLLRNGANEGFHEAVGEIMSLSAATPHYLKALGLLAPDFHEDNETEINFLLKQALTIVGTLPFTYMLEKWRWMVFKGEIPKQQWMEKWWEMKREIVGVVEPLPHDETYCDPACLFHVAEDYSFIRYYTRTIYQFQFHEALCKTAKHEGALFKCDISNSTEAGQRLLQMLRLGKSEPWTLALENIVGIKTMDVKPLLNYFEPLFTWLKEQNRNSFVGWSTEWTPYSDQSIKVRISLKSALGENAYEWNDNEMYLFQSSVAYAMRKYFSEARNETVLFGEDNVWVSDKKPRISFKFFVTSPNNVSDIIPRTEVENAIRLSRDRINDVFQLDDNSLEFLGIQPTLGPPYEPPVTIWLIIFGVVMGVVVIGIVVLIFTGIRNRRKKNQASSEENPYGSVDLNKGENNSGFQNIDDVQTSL
UniProt Q56H28, residues 18-805: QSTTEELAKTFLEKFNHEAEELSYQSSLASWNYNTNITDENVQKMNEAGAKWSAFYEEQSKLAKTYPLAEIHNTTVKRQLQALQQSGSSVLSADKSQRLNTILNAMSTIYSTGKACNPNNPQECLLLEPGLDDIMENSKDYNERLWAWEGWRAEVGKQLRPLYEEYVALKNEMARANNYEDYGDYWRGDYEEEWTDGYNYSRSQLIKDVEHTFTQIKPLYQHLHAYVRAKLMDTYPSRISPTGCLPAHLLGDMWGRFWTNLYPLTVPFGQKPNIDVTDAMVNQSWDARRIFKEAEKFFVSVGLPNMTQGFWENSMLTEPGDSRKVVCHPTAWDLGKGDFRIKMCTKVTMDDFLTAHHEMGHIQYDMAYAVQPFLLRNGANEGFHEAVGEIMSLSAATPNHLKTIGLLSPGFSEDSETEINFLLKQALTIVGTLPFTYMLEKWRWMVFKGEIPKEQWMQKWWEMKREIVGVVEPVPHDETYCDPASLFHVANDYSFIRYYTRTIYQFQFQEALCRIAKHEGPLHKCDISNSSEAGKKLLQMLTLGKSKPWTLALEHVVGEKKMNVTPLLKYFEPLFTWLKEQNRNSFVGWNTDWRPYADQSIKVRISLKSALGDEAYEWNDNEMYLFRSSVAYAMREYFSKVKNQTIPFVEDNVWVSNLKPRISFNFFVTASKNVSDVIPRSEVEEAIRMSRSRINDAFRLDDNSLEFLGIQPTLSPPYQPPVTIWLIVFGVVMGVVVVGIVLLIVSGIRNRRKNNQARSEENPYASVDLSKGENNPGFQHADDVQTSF

Experiment [1] concerns the target civet ACE2, eGFP-tagged (civet) (UniProt Q56NL1). In words: flow cytometry on cells; only the binder purified. For orientation: Flow cytometry measures light scatter and fluorescence of single cells or particles in a stream.
Experiment [2] deals with mouse ACE2, eGFP-tagged (mouse) (UniProt Q8R0I0). Briefly: flow cytometry on cells; only the binder purified.
Experiment [3] has as its target bovine ACE2, eGFP-tagged (bovine) (UniProt Q58DD0). Briefly: flow cytometry on cells; only the binder purified.
Experiment [4] concerns the target cat ACE2, eGFP-tagged (cat) (UniProt Q56H28). In words: flow cytometry on cells; only the binder purified.
Experiment [5] addresses rat ACE2, eGFP-tagged (rat) (UniProt Q5EGZ1). In words: flow cytometry on cells; only the binder purified.
For experiment [6], the target named is civet ACE2 ectodomain fused with mouse Fc (civet) (UniProt Q56NL1). In words: SPR; only the binder purified.
Experiment [7] concerns the target mouse ACE2 ectodomain fused with mouse Fc (mouse) (UniProt Q8R0I0). Briefly: SPR; only the binder purified. On the technique in general: SPR reads the build-up and loss of mass on a sensor chip optically.

These are yes or no findings as the source states them, for the method shown. Some results given as binding are weak or reduced against the parent protein; the word gives no strength.

Regarding “SARS-CoV receptor binding domain (RBD), His-tagged (from UniProt P59594 306-527) (domain or fragment)”, the binding entry is recorded as “binds” in experiment [1]; “no binding (tested: 1 μg/mL)” in experiment [2]; “binds” in experiment [3]; “binds” in experiment [4]; “no binding (tested: 1 μg/mL)” in experiment [5]; “binds” in experiment [6]. The binding result in experiment [7] is recorded as “no binding (tested: 400 nM)”.

Consider “SARS-CoV-2 NTD, His-tagged (from UniProt P0DTC2 20-286) (domain or fragment)”, for which the binding result in experiment [3] and in experiment [4] was “no binding (tested: 1 μg/mL)” in each case.
